According to the supplement of paper PMC4604168 (melanoma cell lines):
Some of the results follow. Repeats are few or missing, and single values can be far off.

What follows are compounds tested on A375 (assay: cell count relative to DMSO control; melanoma cells; higher = more viable cells). Details: library dose: low library concentration; 72 h.
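Note: cell number obtained by counting DAPI-stained nuclei in high-throughput microscope images with image analysis software, screen run in 1,536-well plates.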

| Structure (SMILES) | cell count |
| --- | --- |
| CC(C)(C)c1cnc(CSc2cnc(NC(=O)C3CCNCC3)s2)o1 + CN(NC(=O)CC(=O)NN(C)C(=S)c1ccccc1)C(=S)c1ccccc1 [STA4783] (first compound 0.01 µM, partner dose 0.006 µM) | 30.5% |
| Cc1ccc(NC(=O)c2cccc(N(C)C)c2)cc1NC(=O)c1ccc(O)cc1 + Cn1cncc1[C@@](N)(c1ccc(Cl)cc1)c1ccc2c(c1)c(-c1cccc(Cl)c1)cc(=O)n2C [tipifarnib] (first compound 2 µM, partner dose 0.01 µM) | 85.6% |
| Cc1ccc(NC(=O)c2cccc(N(C)C)c2)cc1NC(=O)c1ccc(O)cc1 + NCC(=O)Nc1ccc(-n2nc(C(F)(F)F)cc2-c2ccc3c(ccc4ccccc43)c2)cc1 [OSU03012] (first compound 2 µM, partner dose 1 µM) | 12.9% |
| CCCCCCCCc1ccc(CCC(N)(CO)CO)cc1 [fingolimod] + CN(NC(=O)CC(=O)NN(C)C(=S)c1ccccc1)C(=S)c1ccccc1 [STA4783] (first compound 2 µM, partner dose 0.006 µM) | 34.4% |
| NC(=O)c1ccc(N(C(N)=O)c2c(F)cccc2F)nc1-c1ccc(F)cc1F + COc1cc2c(Oc3ccc4[nH]c(C)cc4c3F)ncnc2cc1OCCCN1CCCC1 [cediranib] (first compound 0.4 µM, partner dose 0.4 µM) | 103% |
| NC(=O)c1ccc(N(C(N)=O)c2c(F)cccc2F)nc1-c1ccc(F)cc1F + O=C(Nc1cccc(Cl)c1)Nc1ncc(CCNc2ncnc3ccsc23)s1 [SNS314] (first compound 0.4 µM, partner dose 0.0008 µM) | 103% |
| CC(C)(C)c1cnc(CSc2cnc(NC(=O)C3CCNCC3)s2)o1 + NC(=O)Nc1cc(-c2cccc(F)c2)sc1C(=O)N[C@H]1CCCNC1 [AZD7762] (first compound 0.01 µM, partner dose 0.02 µM) | 50.6% |
| CN(NC(=O)CC(=O)NN(C)C(=S)c1ccccc1)C(=S)c1ccccc1 + COc1cc2c(Oc3ccc4[nH]c(C)cc4c3F)ncnc2cc1OCCCN1CCCC1 [cediranib] (first compound 0.006 µM, partner dose 0.4 µM) | 15.9% |
| CCCCCCCCc1ccc(CCC(N)(CO)CO)cc1 [fingolimod] + C[C@@H]1CCN(C(=O)CC#N)C[C@@H]1N(C)c1ncnc2[nH]ccc12 [CP690550] (first compound 2 µM, partner dose 1 µM) | 48.6% |
| CCCCCCCCc1ccc(CCC(N)(CO)CO)cc1 [fingolimod] + COc1cc2c(Oc3ccc4[nH]c(C)cc4c3F)ncnc2cc1OCCCN1CCCC1 [cediranib] (first compound 2 µM, partner dose 0.4 µM) | 53.4% |
| CC(C)(C)c1cnc(CSc2cnc(NC(=O)C3CCNCC3)s2)o1 + NCC(=O)Nc1ccc(-n2nc(C(F)(F)F)cc2-c2ccc3c(ccc4ccccc43)c2)cc1 [OSU03012] (first compound 0.01 µM, partner dose 1 µM) | 13.4% |
| CCCCCCCCc1ccc(CCC(N)(CO)CO)cc1 [fingolimod] + NCC(=O)Nc1ccc(-n2nc(C(F)(F)F)cc2-c2ccc3c(ccc4ccccc43)c2)cc1 [OSU03012] (first compound 2 µM, partner dose 1 µM) | 7.44% |
| CCCCCCCCc1ccc(CCC(N)(CO)CO)cc1 [fingolimod] + NC(=O)Nc1cc(-c2cccc(F)c2)sc1C(=O)N[C@H]1CCCNC1 [AZD7762] (first compound 2 µM, partner dose 0.02 µM) | 27.4% |
| CCCCCCCCc1ccc(CCC(N)(CO)CO)cc1 [fingolimod] + CO[C@@H]1[C@H](N(C)C(=O)c2ccccc2)C[C@H]2O[C@]1(C)n1c3ccccc3c3c4c(c5c6ccccc6n2c5c31)C(=O)NC4 [Midostaurin] (first compound 2 µM, partner dose 0.08 µM) | 63.8% |
| Cc1ccc(NC(=O)c2cccc(N(C)C)c2)cc1NC(=O)c1ccc(O)cc1 + CN(C)S(=O)(=O)c1ccc2c(c1)/C(=C/c1cc3c([nH]1)CCCC3)C(=O)N2 [SU6656] (first compound 2 µM, partner dose 0.4 µM) | 81.2% |
| NC(=O)c1ccc(N(C(N)=O)c2c(F)cccc2F)nc1-c1ccc(F)cc1F + OCCn1cc(-c2cnc3nnn(Cc4ccc5ncccc5c4)c3n2)cn1 [PF04217903] (first compound 0.4 µM, partner dose 1 µM) | 103% |
| CC(C)(C)c1cnc(CSc2cnc(NC(=O)C3CCNCC3)s2)o1 + Cc1cc(N2CCOCC2)cc2[nH]c(-c3c(NC[C@@H](O)c4cccc(Cl)c4)cc[nH]c3=O)nc12 [BMS536924] (first compound 0.01 µM, partner dose 0.2 µM) | 67.4% |
| NC(=O)c1ccc(N(C(N)=O)c2c(F)cccc2F)nc1-c1ccc(F)cc1F + NCC(=O)Nc1ccc(-n2nc(C(F)(F)F)cc2-c2ccc3c(ccc4ccccc43)c2)cc1 [OSU03012] (first compound 0.4 µM, partner dose 1 µM) | 16.7% |
